# Over roughly 2,900 compounds, “IRF Lucia reporter activity, fold change vs agonist alone” has its median near 0.9; the highest 2% begin near 2.8. This is one part of the list.
# How the values were obtained:
# RAW-Dual [1] = assay: IRF Lucia reporter activity, fold change vs agonist alone; higher = enhanced IRF activity; settings: cytotoxicity flag (confluency mask): not cytotoxic, agonist: MPLA (TLR4) […]
# How it was run: (§1)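 Reporter activity is given as fold change relative to agonist-alone wells. To measure it, 50 nL of library stock was pin-tooled onto RAW-Dual macrophages (50,000 cells/well, DMEM, 384-well plates), a PRR agonist followed 1 h later, and cells stayed at 37 °C, 5% CO2. Twenty hours on, supernatant was assayed for IRF (QuantiLuc luminescence) and NF-κB (QuantiBlue, 620 nm absorbance), and wells under 70% of agonist-control IncuCyte confluency in both mask sets were marked cytotoxic.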
# RAW-Dual [2] = assay: IRF Lucia reporter activity, fold change vs agonist alone; cytotoxicity flag (confluency mask): not cytotoxic; higher = enhanced IRF activity
# How it was run: as §1
# [3] = library stock concentration (final ~1000-fold dilution): 10 mM
# [4] = agonist: 3'3'-cGAMP (STING) 10 ug/mL
structure (smiles),measurement,setting,value
CCOCCn1c(N2CCCN(C)CC2)nc2ccccc21.O=C(O)/C=C/C(=O)O.O=C(O)/C=C/C(=O)O,IRF Lucia reporter activity,RAW-Dual [1]; [3],1.22
CCOCCn1c(N2CCCN(C)CC2)nc2ccccc21.O=C(O)/C=C/C(=O)O.O=C(O)/C=C/C(=O)O (library stock concentration (final ~1000-fold dilution): 10 mM),IRF Lucia reporter activity,RAW-Dual [2]; [4],1.05
same,IRF Lucia reporter activity,RAW-Dual [2]; agonist: LPS (TLR4) 0.1 ug/mL,0.996
Cc1ccc(-c2ncc(Cl)cc2-c2ccc(S(C)(=O)=O)cc2)cn1,IRF Lucia reporter activity,RAW-Dual [1]; [3],1
Cc1ccc(-c2ncc(Cl)cc2-c2ccc(S(C)(=O)=O)cc2)cn1 (library stock concentration (final ~1000-fold dilution): 10 mM),IRF Lucia reporter activity,RAW-Dual [2]; [4],1.12
same,IRF Lucia reporter activity,RAW-Dual [2]; agonist: LPS (TLR4) 0.1 ug/mL,0.786
CC(=O)NCC(=O)O.CC(=O)NCC(=O)O.N=C(N)c1ccc(N=NNc2ccc(C(=N)N)cc2)cc1,IRF Lucia reporter activity,RAW-Dual [1]; [3],1.08
CC(=O)NCC(=O)O.CC(=O)NCC(=O)O.N=C(N)c1ccc(N=NNc2ccc(C(=N)N)cc2)cc1 (library stock concentration (final ~1000-fold dilution): 10 mM),IRF Lucia reporter activity,RAW-Dual [2]; [4],1.09
same,IRF Lucia reporter activity,RAW-Dual [2]; agonist: LPS (TLR4) 0.1 ug/mL,1.37
O=C(c1cc(-c2cc3c(cc2C(=O)N2Cc4ccccc4CC2CN2CCOCC2)OCO3)n2c1CCCC2)N(c1ccccc1)c1ccc(O)cc1 (stereo not drawn) (library stock concentration (final ~1000-fold dilution): 10 mM),IRF Lucia reporter activity,RAW-Dual [2]; [4],0.268
same,IRF Lucia reporter activity,RAW-Dual [2]; agonist: LPS (TLR4) 0.1 ug/mL,0.935
NC12CC3CC(CC(C3)C1)C2,IRF Lucia reporter activity,RAW-Dual [1]; library stock concentration (final ~1000-fold dilution): 2 mM,0.958
NC12CC3CC(CC(C3)C1)C2 (library stock concentration (final ~1000-fold dilution): 2 mM),IRF Lucia reporter activity,RAW-Dual [2]; [4],0.731
same,IRF Lucia reporter activity,RAW-Dual [2]; agonist: LPS (TLR4) 0.1 ug/mL,1.09
CC(C)(C)c1cc(C(=O)/C(C#N)=N/Nc2cccc(Cl)c2)no1,IRF Lucia reporter activity,RAW-Dual [1]; [3],0.675
CC(C)(C)c1cc(C(=O)/C(C#N)=N/Nc2cccc(Cl)c2)no1 (library stock concentration (final ~1000-fold dilution): 10 mM),IRF Lucia reporter activity,RAW-Dual [2]; [4],0.306
same,IRF Lucia reporter activity,RAW-Dual [2]; agonist: LPS (TLR4) 0.1 ug/mL,0.762
COC(c1ccccc1)(c1ccccc1)C(Oc1nc(C)cc(C)n1)C(=O)O (stereo not drawn) (library stock concentration (final ~1000-fold dilution): 10 mM),IRF Lucia reporter activity,RAW-Dual [2]; [4],1.11
same,IRF Lucia reporter activity,RAW-Dual [2]; agonist: LPS (TLR4) 0.1 ug/mL,1.06
COC(c1ccccc1)(c1ccccc1)C(Oc1nc(C)cc(C)n1)C(=O)O (stereo not drawn),IRF Lucia reporter activity,RAW-Dual [1]; [3],1.07
Cc1cc(=O)n(-c2ccccc2)n1C,IRF Lucia reporter activity,RAW-Dual [1]; [3],0.987
Cc1cc(=O)n(-c2ccccc2)n1C (library stock concentration (final ~1000-fold dilution): 10 mM),IRF Lucia reporter activity,RAW-Dual [2]; [4],0.988
same,IRF Lucia reporter activity,RAW-Dual [2]; agonist: LPS (TLR4) 0.1 ug/mL,0.739
O=c1cc(-c2ccc(O)cc2)oc2c(C3OCC(O)C(O)C3O)c(O)c(C3OC(CO)C(O)C(O)C3O)c(O)c12 (stereo not drawn) (library stock concentration (final ~1000-fold dilution): 10 mM),IRF Lucia reporter activity,RAW-Dual [2]; [4],1.03
same,IRF Lucia reporter activity,RAW-Dual [2]; agonist: LPS (TLR4) 0.1 ug/mL,0.867
C=CC(=O)N1CCC(Oc2cc3c(Nc4ccc(Cl)c(Cl)c4F)ncnc3cc2OC)CC1 (library stock concentration (final ~1000-fold dilution): 10 mM),IRF Lucia reporter activity,RAW-Dual [2]; [4],0.0242
same,IRF Lucia reporter activity,RAW-Dual [2]; agonist: LPS (TLR4) 0.1 ug/mL,0.101
C=CC(=O)N1CCC(Oc2cc3c(Nc4ccc(Cl)c(Cl)c4F)ncnc3cc2OC)CC1,IRF Lucia reporter activity,RAW-Dual [1]; [3],0.127
CC(NC(=O)C(O)C(C)C)C(=O)NC1C(=O)N(C)CCc2ccccc21 (stereo not drawn),IRF Lucia reporter activity,RAW-Dual [1]; [3],1.06
CC(NC(=O)C(O)C(C)C)C(=O)NC1C(=O)N(C)CCc2ccccc21 (stereo not drawn) (library stock concentration (final ~1000-fold dilution): 10 mM),IRF Lucia reporter activity,RAW-Dual [2]; [4],1.16
same,IRF Lucia reporter activity,RAW-Dual [2]; agonist: LPS (TLR4) 0.1 ug/mL,0.9
NC(=O)c1noc(C(CCCC2CCCCC2)CC(=O)NO)n1 (stereo not drawn) (library stock concentration (final ~1000-fold dilution): 10 mM),IRF Lucia reporter activity,RAW-Dual [2]; [4],0.0719
same,IRF Lucia reporter activity,RAW-Dual [2]; agonist: LPS (TLR4) 0.1 ug/mL,0.466
NC(=O)c1noc(C(CCCC2CCCCC2)CC(=O)NO)n1 (stereo not drawn),IRF Lucia reporter activity,RAW-Dual [1]; [3],0.63
CN1CCc2nc(C(=O)NC3CC(C(=O)N(C)C)CCC3NC(=O)C(=O)Nc3ccc(Cl)cn3)sc2C1.Cc1ccc(S(=O)(=O)O)cc1.O (stereo not drawn),IRF Lucia reporter activity,RAW-Dual [1]; [3],0.993
CN1CCc2nc(C(=O)NC3CC(C(=O)N(C)C)CCC3NC(=O)C(=O)Nc3ccc(Cl)cn3)sc2C1.Cc1ccc(S(=O)(=O)O)cc1.O (stereo not drawn) (library stock concentration (final ~1000-fold dilution): 10 mM),IRF Lucia reporter activity,RAW-Dual [2]; [4],0.859
same,IRF Lucia reporter activity,RAW-Dual [2]; agonist: LPS (TLR4) 0.1 ug/mL,0.989
CN1CCN(C2=Nc3cc(Cl)ccc3Nc3ccccc32)CC1,IRF Lucia reporter activity,RAW-Dual [1]; [3],1.64
CN1CCN(C2=Nc3cc(Cl)ccc3Nc3ccccc32)CC1 (library stock concentration (final ~1000-fold dilution): 10 mM),IRF Lucia reporter activity,RAW-Dual [2]; [4],0.865
same,IRF Lucia reporter activity,RAW-Dual [2]; agonist: LPS (TLR4) 0.1 ug/mL,1.47
CCC(=O)OC(OP(=O)(CCCCc1ccccc1)CC(=O)N1CC(C2CCCCC2)CC1C(=O)O)C(C)C (stereo not drawn) (library stock concentration (final ~1000-fold dilution): 10 mM water),IRF Lucia reporter activity,RAW-Dual [2]; [4],1.29
same,IRF Lucia reporter activity,RAW-Dual [2]; agonist: LPS (TLR4) 0.1 ug/mL,0.873
CCC(=O)OC(OP(=O)(CCCCc1ccccc1)CC(=O)N1CC(C2CCCCC2)CC1C(=O)O)C(C)C (stereo not drawn),IRF Lucia reporter activity,RAW-Dual [1]; library stock concentration (final ~1000-fold dilution): 10 mM water,1.41

# Reference: the supplement of paper PMC10037445
